The assay addresses T1, HER2 on HER2-expressing human tumor cells (SKOV-3, BT-474, NCI-N87, MCF-7) (human, UniProt P04626).
T1 construct: Endogenous HER2 of human tumor cell lines; also called HER2/neu; ErbB-2
The assay can be described thus: FACS on HER2-overexpressing BT-474 cells; 300 nM G10 (myc-His tagged) plus 20 nM mouse anti-myc 9E10, detected with anti-mouse IgG-Alexa488; preblock with 1 uM anti-HER2 antibody 1, anti-HER2 antibody 2 or PBS.

Results on one molecule are retold here after US20170281768A1 (COVAGEN, published 2017).

B1: Fyn SH3-derived polypeptide G10 (designed binder)
chain: GVTLFVALYDYEARDSMGGQDLSFHKGEKFQILKRWRGGDWWEARSLTTGETGYIPSNYVAPVDSIQGEQKLISEEDLHHHHHH
notes: Expressed in E. coli from pQE12
Turning to B1, the binding result was “binds”.
